Results are given in words; binding and its absence hold for the method and conditions named. For part of these data: In cells and extracts the contact can be indirect. Some entries that bind do so weakly or less than the wild type. Where a sequence is shown, tags or fusion partners need not be part of it.
Legend:
[1] = molecular target: HA-tagged JMJD1B (UniProt Q7LBC6); test: co-IP; coexpression in 293T cells; anti-HA immunoprecipitation, coprecipitated Flag-tagged protein detected by anti-Flag blotting
[2] = molecular target: HA-tagged PHF2 (UniProt O75151); test: as above
[3] = molecular target: HA-tagged UTX (UniProt O15550); test: as above
[4] = molecular target: T1, HA-tagged JMJD1A (Jumonji C domain-containing 1A) (UniProt Q9Y4C1); test: as above
T1 sequence: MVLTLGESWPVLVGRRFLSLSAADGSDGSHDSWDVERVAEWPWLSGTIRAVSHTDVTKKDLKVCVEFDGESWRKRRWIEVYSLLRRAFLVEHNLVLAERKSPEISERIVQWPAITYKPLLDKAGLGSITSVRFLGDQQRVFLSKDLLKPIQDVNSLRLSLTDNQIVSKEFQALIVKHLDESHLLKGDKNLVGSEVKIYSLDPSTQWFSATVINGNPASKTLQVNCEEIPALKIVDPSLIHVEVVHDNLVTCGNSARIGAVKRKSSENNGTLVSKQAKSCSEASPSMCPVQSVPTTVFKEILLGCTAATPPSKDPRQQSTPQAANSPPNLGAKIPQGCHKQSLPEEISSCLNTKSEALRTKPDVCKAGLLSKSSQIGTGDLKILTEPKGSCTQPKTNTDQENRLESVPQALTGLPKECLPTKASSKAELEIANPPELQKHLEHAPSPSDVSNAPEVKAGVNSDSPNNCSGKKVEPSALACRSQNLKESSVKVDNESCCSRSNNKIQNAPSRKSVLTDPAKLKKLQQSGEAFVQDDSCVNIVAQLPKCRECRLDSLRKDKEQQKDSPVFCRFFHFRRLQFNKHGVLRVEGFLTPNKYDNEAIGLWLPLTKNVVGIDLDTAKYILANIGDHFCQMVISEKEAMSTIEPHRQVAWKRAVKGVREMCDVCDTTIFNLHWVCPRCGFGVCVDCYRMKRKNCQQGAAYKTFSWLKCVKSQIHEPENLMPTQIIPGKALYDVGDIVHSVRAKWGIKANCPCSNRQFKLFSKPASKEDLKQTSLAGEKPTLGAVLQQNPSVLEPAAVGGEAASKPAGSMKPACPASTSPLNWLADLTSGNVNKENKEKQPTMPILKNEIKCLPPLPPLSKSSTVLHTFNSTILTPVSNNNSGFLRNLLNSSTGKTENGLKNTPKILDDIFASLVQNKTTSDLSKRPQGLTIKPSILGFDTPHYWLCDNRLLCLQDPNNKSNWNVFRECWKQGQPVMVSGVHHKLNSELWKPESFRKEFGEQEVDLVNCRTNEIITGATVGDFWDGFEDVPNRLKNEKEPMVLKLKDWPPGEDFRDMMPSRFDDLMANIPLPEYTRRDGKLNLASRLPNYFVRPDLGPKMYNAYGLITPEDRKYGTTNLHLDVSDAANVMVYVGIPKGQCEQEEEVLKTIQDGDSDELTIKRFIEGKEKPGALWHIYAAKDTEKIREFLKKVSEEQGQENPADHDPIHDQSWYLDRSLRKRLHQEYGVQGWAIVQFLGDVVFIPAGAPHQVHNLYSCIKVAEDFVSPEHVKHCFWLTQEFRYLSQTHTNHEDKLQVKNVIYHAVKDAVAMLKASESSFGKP

Chains of the proteins cited; added tags and fusions are not shown.
UniProt Q7LBC6: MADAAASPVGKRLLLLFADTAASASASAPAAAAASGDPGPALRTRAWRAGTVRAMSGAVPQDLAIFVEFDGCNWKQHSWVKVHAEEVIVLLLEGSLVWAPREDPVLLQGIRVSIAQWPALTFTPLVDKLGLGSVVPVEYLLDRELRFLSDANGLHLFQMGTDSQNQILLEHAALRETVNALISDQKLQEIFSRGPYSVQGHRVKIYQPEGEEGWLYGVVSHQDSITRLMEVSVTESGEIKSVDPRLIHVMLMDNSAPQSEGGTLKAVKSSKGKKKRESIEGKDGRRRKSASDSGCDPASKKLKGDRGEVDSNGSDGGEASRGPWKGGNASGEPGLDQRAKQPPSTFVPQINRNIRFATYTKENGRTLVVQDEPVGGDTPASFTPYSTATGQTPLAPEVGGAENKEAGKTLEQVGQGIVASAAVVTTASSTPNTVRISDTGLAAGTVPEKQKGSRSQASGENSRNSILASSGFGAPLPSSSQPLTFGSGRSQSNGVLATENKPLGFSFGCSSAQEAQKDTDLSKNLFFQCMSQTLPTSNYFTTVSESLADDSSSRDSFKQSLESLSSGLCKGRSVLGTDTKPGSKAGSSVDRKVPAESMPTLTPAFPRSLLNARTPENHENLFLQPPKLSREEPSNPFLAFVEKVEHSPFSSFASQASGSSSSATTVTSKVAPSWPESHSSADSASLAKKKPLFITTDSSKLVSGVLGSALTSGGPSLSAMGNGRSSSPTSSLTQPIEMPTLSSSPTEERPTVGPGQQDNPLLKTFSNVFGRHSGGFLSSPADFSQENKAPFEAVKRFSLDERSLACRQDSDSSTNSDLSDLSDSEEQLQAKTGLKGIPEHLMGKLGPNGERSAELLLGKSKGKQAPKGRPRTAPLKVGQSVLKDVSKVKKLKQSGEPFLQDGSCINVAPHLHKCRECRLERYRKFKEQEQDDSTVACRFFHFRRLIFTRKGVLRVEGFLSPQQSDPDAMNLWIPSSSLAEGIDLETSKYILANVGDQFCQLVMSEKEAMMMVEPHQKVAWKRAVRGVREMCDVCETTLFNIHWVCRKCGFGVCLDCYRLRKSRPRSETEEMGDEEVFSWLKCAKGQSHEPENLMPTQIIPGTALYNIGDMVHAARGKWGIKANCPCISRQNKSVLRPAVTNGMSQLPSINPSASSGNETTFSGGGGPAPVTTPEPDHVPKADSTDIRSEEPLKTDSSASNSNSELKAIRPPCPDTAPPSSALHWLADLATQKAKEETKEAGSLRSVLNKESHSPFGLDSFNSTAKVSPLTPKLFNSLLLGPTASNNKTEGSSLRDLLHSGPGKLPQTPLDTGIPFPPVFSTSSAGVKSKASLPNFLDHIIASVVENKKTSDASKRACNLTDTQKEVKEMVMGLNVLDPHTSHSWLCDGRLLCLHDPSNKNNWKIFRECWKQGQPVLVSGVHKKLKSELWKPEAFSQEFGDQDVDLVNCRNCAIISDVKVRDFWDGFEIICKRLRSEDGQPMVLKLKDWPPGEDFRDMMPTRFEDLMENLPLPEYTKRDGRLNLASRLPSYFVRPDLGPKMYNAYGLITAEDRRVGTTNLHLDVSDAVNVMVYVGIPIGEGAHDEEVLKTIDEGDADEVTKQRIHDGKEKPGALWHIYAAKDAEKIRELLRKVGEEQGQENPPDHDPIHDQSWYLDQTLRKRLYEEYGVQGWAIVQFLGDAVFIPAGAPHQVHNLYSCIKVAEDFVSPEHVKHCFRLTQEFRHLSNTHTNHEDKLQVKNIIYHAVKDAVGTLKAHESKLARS
UniProt O75151: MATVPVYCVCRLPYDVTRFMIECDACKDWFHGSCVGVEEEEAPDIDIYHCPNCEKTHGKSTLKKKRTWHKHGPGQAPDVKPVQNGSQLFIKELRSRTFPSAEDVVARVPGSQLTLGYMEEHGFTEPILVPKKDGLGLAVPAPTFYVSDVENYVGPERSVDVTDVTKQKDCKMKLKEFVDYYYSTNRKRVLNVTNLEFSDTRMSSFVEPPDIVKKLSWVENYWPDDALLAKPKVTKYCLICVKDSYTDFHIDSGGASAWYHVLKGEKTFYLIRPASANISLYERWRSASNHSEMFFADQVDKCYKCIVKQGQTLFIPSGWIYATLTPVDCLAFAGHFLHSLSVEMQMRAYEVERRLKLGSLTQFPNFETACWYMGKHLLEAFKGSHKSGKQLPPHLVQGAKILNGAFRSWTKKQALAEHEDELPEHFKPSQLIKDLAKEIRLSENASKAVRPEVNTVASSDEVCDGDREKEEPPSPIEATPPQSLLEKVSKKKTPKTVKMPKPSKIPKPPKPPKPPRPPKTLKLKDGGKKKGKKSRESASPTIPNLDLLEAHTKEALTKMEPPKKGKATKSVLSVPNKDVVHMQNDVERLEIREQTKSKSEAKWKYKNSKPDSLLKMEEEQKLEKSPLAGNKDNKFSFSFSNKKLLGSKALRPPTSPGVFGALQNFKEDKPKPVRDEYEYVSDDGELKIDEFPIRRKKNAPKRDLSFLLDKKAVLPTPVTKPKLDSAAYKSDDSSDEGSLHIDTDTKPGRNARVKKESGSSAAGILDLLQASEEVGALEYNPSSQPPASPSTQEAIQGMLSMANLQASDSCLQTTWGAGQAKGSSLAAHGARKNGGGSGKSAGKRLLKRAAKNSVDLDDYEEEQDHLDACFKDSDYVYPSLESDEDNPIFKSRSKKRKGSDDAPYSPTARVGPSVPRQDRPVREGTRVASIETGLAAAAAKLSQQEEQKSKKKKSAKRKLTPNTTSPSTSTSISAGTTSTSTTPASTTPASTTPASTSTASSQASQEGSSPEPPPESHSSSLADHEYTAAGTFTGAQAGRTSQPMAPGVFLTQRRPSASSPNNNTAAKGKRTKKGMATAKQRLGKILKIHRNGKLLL
UniProt O15550: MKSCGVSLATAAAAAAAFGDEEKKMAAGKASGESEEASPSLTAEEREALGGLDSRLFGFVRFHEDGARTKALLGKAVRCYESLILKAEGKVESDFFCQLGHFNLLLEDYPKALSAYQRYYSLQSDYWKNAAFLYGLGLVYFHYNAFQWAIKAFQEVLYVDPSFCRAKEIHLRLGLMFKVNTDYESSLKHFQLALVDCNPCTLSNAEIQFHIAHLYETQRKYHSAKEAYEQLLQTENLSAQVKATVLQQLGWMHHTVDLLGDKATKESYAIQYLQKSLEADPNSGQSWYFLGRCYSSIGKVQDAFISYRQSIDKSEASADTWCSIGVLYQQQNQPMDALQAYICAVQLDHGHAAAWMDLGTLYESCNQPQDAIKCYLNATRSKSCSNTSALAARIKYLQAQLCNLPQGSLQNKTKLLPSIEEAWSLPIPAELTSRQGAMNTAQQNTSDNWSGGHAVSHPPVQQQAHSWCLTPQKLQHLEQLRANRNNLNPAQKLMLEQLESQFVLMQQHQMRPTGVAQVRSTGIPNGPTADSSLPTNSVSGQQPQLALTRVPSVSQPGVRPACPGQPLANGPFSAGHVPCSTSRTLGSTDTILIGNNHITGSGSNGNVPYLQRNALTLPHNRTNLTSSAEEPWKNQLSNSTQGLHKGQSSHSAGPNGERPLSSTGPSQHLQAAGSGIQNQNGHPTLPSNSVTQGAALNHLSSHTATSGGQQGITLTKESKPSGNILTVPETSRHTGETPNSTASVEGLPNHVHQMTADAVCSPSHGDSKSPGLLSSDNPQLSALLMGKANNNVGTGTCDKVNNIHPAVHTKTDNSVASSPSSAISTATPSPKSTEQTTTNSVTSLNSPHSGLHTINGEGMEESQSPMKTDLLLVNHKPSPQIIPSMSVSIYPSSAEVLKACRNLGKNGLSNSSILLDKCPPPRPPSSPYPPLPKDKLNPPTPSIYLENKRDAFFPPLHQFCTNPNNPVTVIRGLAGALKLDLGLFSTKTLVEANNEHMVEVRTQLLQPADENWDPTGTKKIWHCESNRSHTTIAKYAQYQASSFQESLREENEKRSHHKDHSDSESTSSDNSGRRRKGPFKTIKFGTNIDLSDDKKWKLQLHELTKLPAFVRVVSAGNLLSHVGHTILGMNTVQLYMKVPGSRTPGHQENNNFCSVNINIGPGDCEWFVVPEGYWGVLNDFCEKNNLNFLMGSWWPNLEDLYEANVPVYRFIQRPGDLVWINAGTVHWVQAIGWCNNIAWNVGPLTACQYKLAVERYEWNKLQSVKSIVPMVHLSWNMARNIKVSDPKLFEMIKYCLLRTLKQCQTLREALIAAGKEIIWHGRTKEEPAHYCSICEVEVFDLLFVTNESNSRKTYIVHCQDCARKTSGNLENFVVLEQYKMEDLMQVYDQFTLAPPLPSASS

[5] = molecular target: T2, Flag-tagged MDFIC (MyoD family inhibitor domain-containing) (UniProt Q9P1T7); test: co-IP; reverse order: coexpression in 293T cells; anti-Flag immunoprecipitation followed by anti-HA blotting
T2 sequence: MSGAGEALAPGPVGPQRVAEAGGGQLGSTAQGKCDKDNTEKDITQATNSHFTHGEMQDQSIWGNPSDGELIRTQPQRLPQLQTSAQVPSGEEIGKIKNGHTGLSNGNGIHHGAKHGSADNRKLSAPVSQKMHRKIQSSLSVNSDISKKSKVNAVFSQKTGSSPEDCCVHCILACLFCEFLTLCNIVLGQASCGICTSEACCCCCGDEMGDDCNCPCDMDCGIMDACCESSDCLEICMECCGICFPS

[6] = molecular target: T3, Flag-tagged MDFI (MyoD family inhibitor) (UniProt Q99750); test: as above
T3 sequence: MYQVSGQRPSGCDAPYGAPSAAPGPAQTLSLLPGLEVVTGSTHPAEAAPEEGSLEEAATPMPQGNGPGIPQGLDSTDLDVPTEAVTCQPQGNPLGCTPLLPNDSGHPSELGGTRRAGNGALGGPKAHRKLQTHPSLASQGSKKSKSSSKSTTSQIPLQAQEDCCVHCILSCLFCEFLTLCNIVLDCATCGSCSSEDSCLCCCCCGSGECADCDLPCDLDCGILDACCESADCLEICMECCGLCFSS

[7] = molecular target: T4, GST-MDFIC (UniProt Q9P1T7); test: pull-down; GST fusion proteins bound to glutathione agarose, challenged with purified Flag-6His-JMJD1A; bound JMJD1A revealed by anti-Flag Western blotting; both purified
T4 sequence: T2 sequence

[8] = molecular target: T5, GST-MDFI (UniProt Q99750); test: as above
T5 sequence: T3 sequence

B1: Flag-tagged MDFI (MyoD family inhibitor) (protein, UniProt Q99750 1-246)
chain: T3 sequence
For B1, the binding [1] was “no binding”, the binding [2] was “no binding” and the binding [3] was “no binding”. For the same binder, the binding [4] was “binds”.

B2: HA-tagged JMJD1A (Jumonji C domain-containing 1A) (protein, UniProt Q9Y4C1 1-1321)
chain: T1 sequence
In the case of B2, the binding [5] is reported as “binds” and the binding [6] is reported as “binds”.

B3: Flag-tagged MDFIC (MyoD family inhibitor domain-containing) (protein, UniProt Q9P1T7 1-246)
chain: T2 sequence
B3 was tested, and the binding [4] was “binds”.

B4: Flag-6His-JMJD1A (protein, UniProt Q9Y4C1 1-1321)
chain: T1 sequence
In the case of B4, the binding [7] is reported as “binds” and the binding [8] is reported as “binds”.

Reference: paper PMC7250871
